Source: PubChem BioAssay AID485344 (National Center for Advancing Translational Sciences (NCATS), 2010)
Screen size: about 340,000 compounds; about 6,900 (2%) were called active. Cut-off read from the data, not from the text of the source: active = inhibition above about 30%; inactive = below that, where a call was filed. The entries are a selection whose mix differs from that of the whole data set. Where no call is shown, the source filed none.

Target: D(2) dopamine receptor (Homo sapiens) (UniProt P14416)
Assay: HTS Assay for Allosteric Antagonists of the Human D2 Dopamine Receptor: Primary Screen for Antagonists; note: 0% is about no effect
Settings: HEK293 TREx D2 cells, calcium flux, dopamine EC80; at 10 µM; stronger effect = higher value
Procedure, shortened: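 Overnight-induced (tetracycline, 30 C) HEK293 T-REx cells carrying force-coupled D2 receive a no-wash calcium dye, then compound, then EC80 dopamine at 180 s; signals are read kinetically throughout.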

Sequence of UniProt P14416 (P14416 whole entry, looked up): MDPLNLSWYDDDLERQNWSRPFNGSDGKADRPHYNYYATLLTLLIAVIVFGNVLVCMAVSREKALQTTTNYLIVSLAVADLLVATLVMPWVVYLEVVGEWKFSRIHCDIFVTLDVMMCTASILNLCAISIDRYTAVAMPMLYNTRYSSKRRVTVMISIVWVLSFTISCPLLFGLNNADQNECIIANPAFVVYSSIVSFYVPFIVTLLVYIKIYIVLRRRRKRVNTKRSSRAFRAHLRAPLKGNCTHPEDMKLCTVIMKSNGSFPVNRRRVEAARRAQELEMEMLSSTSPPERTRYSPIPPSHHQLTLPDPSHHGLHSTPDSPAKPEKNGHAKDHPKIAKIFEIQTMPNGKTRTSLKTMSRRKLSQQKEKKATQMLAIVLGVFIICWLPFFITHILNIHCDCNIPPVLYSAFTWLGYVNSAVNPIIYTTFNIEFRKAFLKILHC

Q: How did the inhibition turn out when CCN(CC)S(=O)(=O)c1ccc2c(c1)nc(CN(C)C(=O)Nc1cccc(Cl)c1)n2C was run?
A: The inhibition was 5.2%.

Q: Which inhibition does the source give for COc1cccc(C(=O)c2cn(CC(=O)Nc3cccc(C(F)(F)F)c3)c3nc(C)ccc3c2=O)c1 here?
A: Its inhibition is -5.45%.

Q: CC(=O)N1CCc2cc(S(=O)(=O)NC(CC(C)C)C(=O)NCCc3ccc(C)cc3)ccc21 (stereo unspecified) was tested. Which inhibition did it give?
A: Its inhibition is -10.1%.

Q: How did the inhibition turn out when CCCN(CCC)C(=O)CN1C(=O)CSc2ccc(S(=O)(=O)N3CCC(C)CC3)cc21 was run?
A: Its inhibition is 1.65%.

Q: With COc1ccc(Cn2c(CCC(=O)Nc3ccc(C)c(C)c3)nc3cccnc32)cc1 as the molecule, how does the inhibition read?
A: Its inhibition is 11.9%.

Q: With CCOc1ccc2nc(N3CCCC(C(=O)NCCCOC)C3)sc2c1 (stereo unspecified) as the molecule, how does the inhibition read?
A: Its inhibition is -3.6%.

Q: For Cc1nc2nc(NCc3cccc(Cl)c3)[nH]n2c(=O)c1Cc1ccccc1, which inhibition is on record?
A: The inhibition was -0.325%.

Q: With COc1ccc(-c2cc3ccc(O)c(CN4CCCC(C)C4)c3oc2=O)cc1 (stereo unspecified) as the molecule, how does the inhibition read?
A: The inhibition was -0.0166%.

Q: How did the inhibition turn out when CCOc1ccc(CCNC(=O)Cn2c(=O)c3cccn3c3ccc(F)cc32)cc1OCC was run?
A: Its inhibition is 10%.

Q: With COC(=O)c1ccc(Cn2c(SCc3ccccc3F)nc3ccncc32)cc1 as the molecule, how does the inhibition read?
A: Its inhibition is -7.92%.

Q: Cc1ccc(NCC(=O)N/N=C/c2ccncc2)cc1 was tested. Which inhibition did it give?
A: The inhibition was active: 49.3%.

Q: With CCN1CCc2nc3sc(C(=O)c4ccccc4)c(N)c3cc2C1 as the molecule, how does the inhibition read?
A: Its inhibition is -11.2%.

Q: For CC(CNC(=O)c1ccc(CSc2nc3ccncc3n2Cc2ccc(F)cc2)cc1)c1ccccc1 (stereo unspecified), which inhibition is on record?
A: Its inhibition is 5.34%.

Q: Which inhibition does the source give for COc1ccccc1NC(=S)NC(=O)Cc1ccc(Cl)cc1 here?
A: Its inhibition is active: 52.3%.

Q: With CN(C)Cc1nc2c(c(=O)[nH]1)C1(CCCCC1)Cc1ccccc1-2 as the molecule, how does the inhibition read?
A: Its inhibition is active: 36.9%.

Q: Cc1ccc(CNC(=O)C2CCCCN2S(=O)(=O)c2ccc(F)cc2)cc1 (stereo unspecified) was tested. Which inhibition did it give?
A: The inhibition was 6.02%.

Q: For COc1ccc(CNC(=O)C2CCN(S(=O)(=O)c3ccc(F)cc3)CC2)cc1, which inhibition is on record?
A: Its inhibition is -8.74%.

Q: With Cc1ccc(NC(=O)CSc2nc(-c3ccc(C(C)(C)C)cc3)nc3cc(=O)[nH]n23)cc1C as the molecule, how does the inhibition read?
A: The inhibition was -3.51%.

Q: How did the inhibition turn out when O=C(Cc1ccccc1)N[C@@H](Cc1ccc(O)cc1)C(=O)O was run?
A: Its inhibition is active: 36%.

Q: With COCCNC(=O)CSc1nc2cc3c(cc2c(=O)n1CCCC(=O)NCc1ccc(OC)cc1)OCO3 as the molecule, how does the inhibition read?
A: Its inhibition is 7.99%.

Q: For COC(=O)c1cc(S(=O)(=O)NCC2CCN(Cc3ccc(F)cc3)CC2)c[nH]1, which inhibition is on record?
A: The inhibition was -2.19%.

Q: Which inhibition does the source give for COCCNC(=O)c1ccc2c(c1)N(Cc1cc(C)ccc1C)C(=O)c1ccccc1S2(=O)=O here?
A: Its inhibition is 11.3%.

Q: COc1ccc(S(=O)(=O)N2CCN(c3ccc(Cl)c(Cl)c3)CC2)c2ccccc12 was tested. Which inhibition did it give?
A: Its inhibition is -5.79%.

Q: Cc1cc(NCc2ccccc2Cl)n2cnnc2n1 was tested. Which inhibition did it give?
A: Its inhibition is 8.89%.

Q: With Cc1ccc(NC(=O)CSc2nc3ccccc3nc2Cc2ccccc2)c(C)c1 as the molecule, how does the inhibition read?
A: The inhibition was -17.6%.

Q: CCOc1ccc(Cn2c(-c3ccc(OCC)c(OC)c3)nc3ccccc32)cc1OC was tested. Which inhibition did it give?
A: The inhibition was -8.93%.

Q: Which inhibition does the source give for CCCN(CCC)CCNC(=O)Cn1cc2c(n1)-c1c(oc(C(=O)N3CCCC3)c1C)CC2 here?
A: The inhibition was 4.3%.

Q: Which inhibition does the source give for Cc1cccc(-c2nnn3c2nc(NCCc2ccc(S(N)(=O)=O)cc2)c2ccccc23)c1 here?
A: Its inhibition is -9.88%.

Q: For COc1ccc(OC)c(NC(=O)CSc2cn(CC(=O)N3CCCCCC3)c3ccccc23)c1, which inhibition is on record?
A: Its inhibition is 0.913%.

Q: With O=C(CS(=O)(=O)c1cccc2nsnc12)Nc1ccc(F)cc1 as the molecule, how does the inhibition read?
A: Its inhibition is -2.81%.

Q: With COC(=O)c1ccc(CN2CCCCC2)cc1 as the molecule, how does the inhibition read?
A: Its inhibition is active: 35.2%.

Q: With CCc1ccc(NC(=O)CN2C(=O)C(c3ccc(F)cc3)=NC2(C)C)cc1 as the molecule, how does the inhibition read?
A: Its inhibition is 2.35%.

Q: CCOC(=O)c1ccc(NC(=O)CSc2nc3ccccc3c(=O)n2CCNC(C)=O)cc1 was tested. Which inhibition did it give?
A: The inhibition was 14.7%.

Q: With Cc1ccc(CCNC(=O)Cn2ncc3c([nH]c4ccc(C)cc43)c2=O)cc1 as the molecule, how does the inhibition read?
A: The inhibition was -1.31%.

Q: CCCCOc1ccc(Cn2c(=O)oc3ccc(C)cc32)cc1 was tested. Which inhibition did it give?
A: Its inhibition is -9.22%.

Q: With COc1ccc(C)cc1NC(=O)CNC(c1ccccc1)c1ccccc1 as the molecule, how does the inhibition read?
A: The inhibition was active: 37.2%.

Q: How did the inhibition turn out when COc1ccc(C)cc1NC(=O)C1CCN(S(=O)(=O)c2ccc3c(c2)CCCN3C(C)=O)CC1 was run?
A: Its inhibition is -2.12%.

Q: O=C(Nc1ccc(N2CCN(c3ccc(F)cc3)CC2)c(C(=O)O)c1)c1ccccc1F was tested. Which inhibition did it give?
A: The inhibition was 7.68%.

Q: With CC1=C(C(=O)Nc2cccnc2)C(c2ccccc2)n2nc(SCc3ccccc3Cl)nc2N1 (stereo unspecified) as the molecule, how does the inhibition read?
A: The inhibition was -3.03%.

Q: Which inhibition does the source give for CCOc1ccc(CNC(=O)CCCn2nc(C)c3sc4ccccc4c3c2=O)cc1 here?
A: Its inhibition is 10.7%.

Q: For COC(=O)c1cc(S(=O)(=O)NCC2CCN(Cc3ccc(C)cc3)CC2)cn1C, which inhibition is on record?
A: Its inhibition is 10.5%.

Q: Cc1cccc(NS(=O)(=O)c2ccc3c(c2)[C@H]2C=CC[C@H]2[C@@H](c2ccc(F)cc2)N3)c1 was tested. Which inhibition did it give?
A: The inhibition was -16.1%.

Q: How did the inhibition turn out when CCc1ccc(C(=O)c2cn(CC(=O)Nc3cc(OC)ccc3OC)c3ccc(C)cc3c2=O)cc1 was run?
A: Its inhibition is -17.5%.

Q: How did the inhibition turn out when CCCOc1ccc(-c2nn(-c3ccccc3)cc2C2NC(=O)NC(C)=C2C(=O)OC)cc1 (stereo unspecified) was run?
A: Its inhibition is 10.3%.

Q: COc1cc(C(=O)OCCn2c(=O)c3c(ncn3CCN(C)C)n(C)c2=O)cc(OC)c1OC was tested. Which inhibition did it give?
A: The inhibition was active: 33.8%.

Q: CCOc1ccccc1NC(=O)c1c(NCc2ccc(C)o2)sc2c1CCC(C)C2 (stereo unspecified) was tested. Which inhibition did it give?
A: The inhibition was 22.3%.

Q: For COc1ccc(CCNC(=O)Cn2nc(C)n3c(cc4cc(F)ccc43)c2=O)cc1OC, which inhibition is on record?
A: The inhibition was 0.186%.

Q: Which inhibition does the source give for COc1ccc(S(=O)(=O)Nc2ccc3oc4c(c3c2)C(=O)CC(C)(C)C4)cc1 here?
A: Its inhibition is -9.8%.

Q: Which inhibition does the source give for COc1ccccc1CN1CCc2c([nH]c3ccccc23)C1 here?
A: Its inhibition is active: 52.6%.

Q: Which inhibition does the source give for Cc1ccc(C)c(N2CCN(C(=O)c3cc4c(=O)n(Cc5ccco5)ccc4nc3C)CC2)c1 here?
A: Its inhibition is 1.15%.

Q: Which inhibition does the source give for CCCCN(C)C(=O)Cn1c(C2CC(=O)N(c3ccc(C)cc3)C2)nc2ccccc21 (stereo unspecified) here?
A: Its inhibition is -14.7%.

Q: For COc1ccc(NC(=O)CSC2=Nc3ccccc3C3=NC(CCC(=O)NCc4ccc(F)cc4)C(=O)N23)cc1Cl (stereo unspecified), which inhibition is on record?
A: The inhibition was -6.42%.

Q: CCOC(=O)c1ccc(NC(=O)CC2Sc3ccc(C(F)(F)F)cc3NC2=O)cc1 (stereo unspecified) was tested. Which inhibition did it give?
A: The inhibition was 3.78%.

Q: Cc1nn(C)c2c1c(-c1ccccc1)cc(=O)n2Cc1ccccc1Cl was tested. Which inhibition did it give?
A: Its inhibition is -7.33%.

Q: For COc1cccc(N2CCN(C(=O)C3CCN(S(=O)(=O)c4cccc5nonc45)CC3)CC2)c1, which inhibition is on record?
A: The inhibition was -15.6%.

Q: With Cc1ccc(CN(C(=O)COc2ccc(Cl)cc2)c2ccccn2)o1 as the molecule, how does the inhibition read?
A: Its inhibition is -1.37%.

Q: Which inhibition does the source give for Cc1cc(NC(=O)CCNS(=O)(=O)c2ccc3c(c2)CCCC(=O)N3)ccc1Br here?
A: The inhibition was -2.74%.

Q: For CS(=O)(=O)N(CC(=O)Nc1ccc(Br)cc1)c1ccccc1Br, which inhibition is on record?
A: The inhibition was 8.64%.

Q: How did the inhibition turn out when CCN(CC)CCOc1cccc(C(C)C)c1 was run?
A: The inhibition was active: 72.8%.

Q: Which inhibition does the source give for COc1ccc(-c2nc(CCNC(=O)c3cccs3)cs2)cc1 here?
A: The inhibition was 12.2%.

Q: How did the inhibition turn out when CCOc1ccc(N(C(=O)c2ccccc2F)S(=O)(=O)c2ccc3c(c2)n(C)c(=O)n3C)cc1 was run?
A: Its inhibition is -18.7%.
